Experimental data reported in article PMC4040926, “Re-examining how complexin inhibits neurotransmitter release” (eLife, 2014).

B1: synaptobrevin SNARE motif, rat synaptobrevin 2 […] (domain or fragment)
chain: not shown
notes: synaptobrevin 2, rat, […] (SNARE motif); Uniformly 2H,15N-labelled in the NMR experiment; also called Syb; 2H,15N-Syb; source: E. coli, purified
B2: syntaxin-1 SNARE motif, rat syntaxin 1A […] (domain or fragment)
chain: not shown
notes: syntaxin 1A, rat, […] (SNARE motif); also called Syx; syntaxin-1([…]); source: E. coli, purified

Tests used:
[1] = molecular target: T1, SNAP-25 N-terminal SNARE motif, human SNAP-25 residues 11-82 (human, UniProt P60880 11-82); test: NMR titration; 1H-15N TROSY-HSQC of 2H,15N-labelled synaptobrevin SNARE motif free and incorporated into the SNARE complex assembled from the purified fragments (overnight, 4°C); spectra at 32°C; conditions: both partners purified
T1 construct: SNAP-25, human, residues 11-82 (N-terminal SNARE motif); also called SNAP-25 (11-82); source: E. coli, purified
T1 sequence (P60880 11-82): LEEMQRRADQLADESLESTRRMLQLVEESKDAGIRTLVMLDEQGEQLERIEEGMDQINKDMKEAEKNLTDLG

[2] = molecular target: B1; test: as above; conditions: both partners purified

Row | binding result [1] | Binder | binding result [2]
1 | binds | B1 | –
2 | – | B2 | binds
